Data from PubChem BioAssay AID485313 (National Center for Advancing Translational Sciences (NCATS), 2010).
Among all 320,000 compounds or so, about 7,600 (2.4%) were called active. The inconclusive results got no clear call from the source; some entries with a clear call stand among them for comparison. Calls follow the shape of the dose curve; as a rule, active = well fitted activation curve with a large enough effect; inconclusive = small, poorly fitted or top-dose-only effect; inactive = no such curve, though single readings can be large or run the other way. No potency is given beside an inconclusive call; the fits are too rough.

Assay: qHTS Assay for NPC1 Promoter Activators; also: nearly all actives have a fitted effect of over 60% in size;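 as to activation: reporter is driven by a mutant NPC1 promoter; % of control where 0% means no effect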
Conditions: Huh7 NPC1 promoter luciferase reporter, 24 h; series mostly up to 9.22 µM; activation: at the top concentration
How it was run: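 Cells: Huh7 expressing luciferase under the NPC1 promoter, 1500/well. Seeded 2 h, compound added, incubated 24 h at 37 °C. Luciferase reagent, 10 min ambient, then luminescence.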
Potency is read from the fitted curve at half-maximal effect; tags tell the direction and shape of the fitted curve.

| SMILES | Potency | activation |
| --- | --- | --- |
| Cc1cc(C(=O)Nc2cnc3ccccc3c2)ccc1[N+](=O)[O-] | active: 1410 nM |  |
| CCOc1ccc(NC(=O)c2cccc(NC(=O)c3ccccc3)c2)cc1 | inconclusive [activator, single point] |  |
| CCOC(=O)Cc1csc(NC(=O)c2cc3ccccc3o2)n1 | inconclusive [activator, partial curve] |  |
| O=C(C1CCN(S(=O)(=O)c2cccs2)CC1)N1CCCCC1 | active: 3550 nM |  |
| Cc1occc1C(=O)N/N=C/c1ccc(OCc2ccccc2)cc1 | inconclusive [activator, partial curve] |  |
| COc1cc(C2Nc3ccccc3C(=O)N2c2ccc3c(c2)OCCO3)ccc1OCC(C)C (centres undefined) | active: 1000 nM |  |
| COc1ccc(C(=O)NCCSc2ccccc2)cc1 | active: 355 nM |  |
| CCN(CC)C(=O)Oc1ccc2ccccc2c1Br | inconclusive [activator, single point] |  |
| Cc1ccc(NC(=O)Nc2cccn(Cc3c(F)cccc3Cl)c2=O)cc1 |  | inactive: 18.8% |
| CC(=O)COc1cccc2ccc(/C=C/c3ccc(Br)s3)nc12 | inconclusive [activator, partial curve] |  |
| COc1cccc(N(CC(=O)NC2CCCCC2)C(=O)CCC(=O)Nc2nccs2)c1 |  | inactive: -1.44% |
| CC(C)C(=O)Nc1ccc(NC(=O)c2ccco2)cn1 | inconclusive [activator, single point] |  |
| CCOC(=O)N1CCN(C(=O)c2cc(COc3c(F)cccc3F)on2)CC1 | active: 2240 nM |  |
| CC(=O)c1c(C)[nH]c(C(=O)Nc2ccc(F)cc2F)c1C | inconclusive [activator, single point] |  |
| COc1ccc2cc3c(N)c(C(=O)NCc4ccco4)sc3nc2c1 | inconclusive [activator, partial curve] |  |
| O=C(NCc1cccnc1)/C(=C\c1ccc(-c2ccc(Cl)c(Cl)c2)o1)S(=O)(=O)c1ccccc1 |  | inactive: -5.78% |
| Cc1cccc(NC(=S)NC(=O)C2CC2)c1 |  | inactive: 27.4% |
| COc1cccc(C(=O)O/N=C(\N)c2ccccn2)c1 | active: 2510 nM |  |
| COc1cc(C(=S)N(C)C)ccc1O |  | inactive: -1.81% |
| CCOc1ccc(-c2ccc(SCC)nn2)cc1 | active: 708 nM |  |
| CCOC(=O)c1csc(NC(=O)c2ccccc2)n1 | active: 3160 nM |  |
| COC(=O)C(Cc1ccc(OC(=O)c2ccc(Cl)cc2)cc1)N1Cc2ccccc2C1=O (centres undefined) | inconclusive [activator, partial curve] |  |
| CC1=CN2C(=N)/C(=C/c3ccc(Sc4ccc(C)cc4)o3)C(=O)N=C2S1 |  | inactive: 6.53% |
| Cc1ccc(OS(=O)(=O)c2ccc(N3C(=O)CCC3=O)cc2)cc1 |  | inactive: -0.862% |
| Cc1ccc(N(Cc2ccccc2)C(=O)c2ccc(Cl)c(S(=O)(=O)N3CCOCC3)c2)cc1 |  | inactive: -0.916% |
| O=C(C1COc2ccccc2O1)N1CCN(S(=O)(=O)c2ccccc2)CC1 (centres undefined) | inconclusive [activator, single point] |  |
| C=CCNC(=O)/C=C/c1ccc(C(C)C)cc1 | inconclusive [activator, partial curve] |  |

| SMILES | Potency | activation |
| --- | --- | --- |
| CN1N=C2c3ccccc3CCC2C1c1ccc(Cl)cc1 (centres undefined) | inconclusive [activator, partial curve] |  |
| COc1ccc(-c2cc3ncnc(Cl)c3s2)cc1 | active: 3550 nM |  |
| COc1ccc(-n2cnnc2SCC(=O)Nc2cc(C(C)(C)C)nn2-c2ccccc2)cc1 |  | inactive: 0.853% |
| COc1ccccc1OCCNC(=O)C(CCSC)NC(=O)c1ccccc1Cl (centres undefined) |  | inactive: -3.76% |
| COC(=O)c1ccc(N2C(=O)CC(SCCN)C2=O)cc1 (centres undefined) | inconclusive [activator, partial curve] |  |
| Nc1ccc2oc(=O)c3ccccc3c2c1 | inconclusive [activator, partial curve] |  |
| CCc1nnc(NC(=O)C2Cc3ccccc3CN2S(=O)(=O)c2cccs2)s1 (centres undefined) | inconclusive [activator, single point] |  |
| COc1ccc(C(=O)N2c3ccccc3C(=O)OC2c2ccc3c(c2)OCO3)cc1 (centres undefined) | inconclusive [activator, partial curve] |  |
| CC(C)Cc1cc(CNC(=O)C2CCC(=O)N(Cc3cccc(C(F)(F)F)c3)C2)on1 (centres undefined) |  | inactive: -0.464% |
| O=S(=O)(NC(=NCc1ccccc1)c1ccc(F)cc1)c1ccc(Cl)cc1 |  | inactive: -3.46% |
| O=[N+]([O-])c1ccccc1Nc1nc(-c2cccnc2)cs1 | inconclusive [activator, partial curve] |  |
| O=C(CSc1n[nH]c(=O)n1-c1ccccc1)Nc1ccccc1 | inconclusive [activator, single point] |  |
| CCC(=O)NC(Nc1c(C)n(C)n(-c2ccccc2)c1=O)C(Cl)(Cl)Cl (centres undefined) | inconclusive [activator, single point] |  |
| CCc1nc(SCc2ccc(OCC(C)C)cc2)n[nH]1 | inconclusive [activator, single point] |  |
| CC(C)(C)NC(=S)NNC(=O)c1ccc2ncccc2c1 | inconclusive [activator, partial curve] |  |
| c1ccc(-c2nc3cc4ccccc4cc3[nH]2)nc1 | active: 631 nM |  |
| COc1cc(-c2nnn(CC(=O)NC3CCS(=O)(=O)C3)n2)ccc1OCc1ccccc1 (centres undefined) | inconclusive [activator, single point] |  |
| O=C(O)CCC(=O)c1ccc2c(c1)OCCO2 |  | inactive: 0.742% |
| Cc1csc(NC(=O)C2=COCCO2)n1 | inconclusive [activator, partial curve] |  |
| CN(C)S(=O)(=O)c1cccc(NC(=S)NC(=O)c2ccco2)c1 | inconclusive [activator, partial curve] |  |
| Cc1csc(NC(=O)CSc2nnc(-c3ccoc3C)o2)n1 | inconclusive [activator, single point] |  |
| CCOc1ccc(CNC(=S)Nc2ccccc2)cc1Cl |  | inactive: -0.72% |
| CC(=O)Nc1c(C(=O)Nc2ccc3c(c2)OCO3)oc2ccccc12 | active: 2820 nM |  |
| CC(=O)CSc1ccc(-c2nc3ccccc3[nH]2)cn1 | active: 562 nM |  |
| Cc1ccccc1N/N=C/c1ccc(N2CCOCC2)cc1 | active: 3160 nM |  |
| O=C(OC1CCCCC1)c1cc2ccccc2oc1=O | inconclusive [activator, partial curve] |  |
| COc1ccc(OCc2cc(C(=O)NCC3(C)COC3)no2)c(Cl)c1 | inconclusive [activator, partial curve] |  |

| SMILES | Potency | activation |
| --- | --- | --- |
| COc1ccc([N+](=O)[O-])cc1CSc1nnc(NC(C)=O)s1 |  | inactive: -2.1% |
| COc1cc(/C=N/n2cnnc2)ccc1OCCSc1ccc(C)cc1 | inconclusive [activator, single point] |  |
| Cc1cc(/C=C(\C#N)C(=O)NCc2ccco2)c(C)n1C1CCCC1 | inconclusive [activator, single point] |  |
| Cc1nnsc1C(=O)NNc1ccc(C(C)C)cc1 | inconclusive [activator, single point] |  |
| NS(=O)(=O)c1cccc(NC(=O)CCSc2ccccc2Cl)c1 | inconclusive [activator, single point] |  |
| C(=N\n1cnnc1)/c1ccc(OCc2cccc3ccccc23)cc1 | inconclusive [activator, partial curve] |  |
| OCCCNc1ncnc2c1cnn2-c1ccc(Cl)cc1 | active: 199 nM |  |
| Nc1ccc(Oc2ccc3c(c2)C(=O)N(CC2CCCO2)C3=O)cc1 (centres undefined) | inconclusive [activator, partial curve] |  |
| CN(C)c1ccc(-c2nc3cnccn3c2Nc2ccc3c(c2)OCCO3)cc1 | inconclusive [activator, partial curve] |  |
| CCc1ccc2oc(-c3cccc(NC(=O)c4cccnc4)c3)nc2c1 | inconclusive [activator, partial curve] |  |
| Cc1nnc(NS(=O)(=O)c2ccc(Br)cc2)s1 |  | inactive: -1.02% |
| Cn1c(C(=O)NCCN2CCOCC2)cc2c(=O)n3ccccc3nc21 |  | inactive: 0.951% |
| CCC(=O)N(c1nnc(SCC(=O)Nc2ccc(N3CCOCC3)cc2)s1)C1CC1 |  | inactive: -1.04% |
| COc1ccc2nc(NC(=O)c3ccco3)sc2c1 | active: 316 nM |  |
| COc1ccc(S(=O)(=O)N2CCOC2CNC(=O)C(=O)NCCN2CCOCC2)cc1 (centres undefined) |  | inactive: -0.806% |
| O=C(/C=C/c1ccc(F)cc1)NCCC1=CCCCC1 | inconclusive [activator, single point] |  |
| Fc1cccc(/C=N/NC(=S)Nc2ccccc2Cl)c1 | inconclusive [activator, partial curve] |  |
| O=C(Nc1ccc2ncccc2c1)c1ccccc1Br | inconclusive [activator, single point] |  |
| CC(C)(C)c1ccc(NC(=O)c2ccc(=O)[nH]n2)cc1 | active: 708 nM |  |
| COc1ccccc1-c1nnc(-c2ccc(N3CCOCC3)cc2)o1 | inconclusive [activator, single point] |  |
| COc1ccc(C(=O)NNC(=O)c2ccccn2)cc1 | active: 316 nM |  |
| CC(/C=N/N1CCN(c2ccccn2)CC1)=C\c1ccccc1 | inconclusive [activator, partial curve] |  |
| Cc1ccc(C(C(=O)NCC2CCCO2)N(Cc2ccccc2)C(=O)c2ccc(-c3ccccc3)[nH]2)o1 (centres undefined) |  | inactive: -4.14% |
| Cc1[nH]c2ccccc2c1Cc1nnc(SCC(=O)NCc2ccco2)o1 |  | inactive: 0.327% |
| CCCn1cnc2cc(NCc3cccs3)ccc21 | inconclusive [activator, single point] |  |
